# Assay results from the supplement of paper PMC8728848.
# Some of the results follow.
# B1: Strep tagII-anxA1 (Homo sapiens), P04083 (protein)
# chain: MAMVSEFLKQAWFIENEEQEYVQTVKSSKGGPGSAVSPYPTFNPSSDVAALHKAIMVKGVDEATIIDILTKRNNAQRQQIKAAYLQETGKPLDETLKKALTGHLEEVVLALLKTPAQFDADELRAAMKGLGTDEDTLIEILASRTNKEIRDINRVYREELKRDLAKDITSDTSGDFRNALLSLAKGDRSEDFGVNEDLADSDARALYEAGERRKGTDVNVFNTILTTRSYPQLRRVFQKYTKYSKHDMNKVLDLELKGDIEKCLTAIVKCATSKPAFFAEKLHQAMKGVGTRHKALIRIMVSRSEIDMNDIKAFYQKMYGISLCQAILDETKGDYEKILVALCGGN
# What was measured:
# Experiment in all cases: glycan array binding signal (z-score within array); higher = stronger binding
# Settings in all cases: glycan notation: IUPAC condensed, linker removed
# [1] = biological target: Fuc(a1-2)[GalNAc(a1-3)]Gal(b1-3)GlcNAc(b1-2)Man(a1-3)[Fuc(a1-2)[GalNAc(a1-3)]Gal(b1-3)GlcNAc(b1-2)Man(a1-6)]Man(b1-4)GlcNAc(b1-4)GlcNAc
# In short: (§1)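 Glycan array binding is given as a within-array Z-score, which can be read as non-binding when negative. The arrays, 3228 of them, came from the Consortium for Functional Glycomics database and were retained only where the protein sequence was available. Z-scores were averaged across arrays of the same protein sequence at different concentrations or buffers and across linkers.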
# [2] = biological target: Fuc(a1-2)[GalNAc(a1-3)]Gal(b1-3)GlcNAc(b1-2)Man(a1-3)[Fuc(a1-2)[GalNAc(a1-3)]Gal(b1-3)GlcNAc(b1-2)Man(a1-6)]Man(b1-4)GlcNAc(b1-4)[Fuc(a1-6)]GlcNAc
# In short: as §1
# [3] = biological target: Fuc(a1-2)[GalNAc(a1-3)]Gal(b1-3)GlcNAc(b1-3)GalNAc
# In short: as §1
# [4] = biological target: Fuc(a1-2)[GalNAc(a1-3)]Gal(b1-3)GlcNAc(b1-6)GalNAc
# In short: as §1
# [5] = biological target: Fuc(a1-2)[GalNAc(a1-3)]Gal(b1-4)Glc
# In short: as §1
# [6] = biological target: Fuc(a1-2)[GalNAc(a1-3)]Gal(b1-4)GlcNAc
# In short: as §1
# [7] = biological target: Fuc(a1-2)[GalNAc(a1-3)]Gal(b1-4)GlcNAc(b1-2)Man(a1-3)[Fuc(a1-2)[GalNAc(a1-3)]Gal(b1-4)GlcNAc(b1-2)Man(a1-6)]Man(b1-4)GlcNAc(b1-4)GlcNAc
# In short: as §1
# [8] = biological target: Fuc(a1-2)[GalNAc(a1-3)]Gal(b1-4)GlcNAc(b1-2)Man(a1-3)[Fuc(a1-2)[GalNAc(a1-3)]Gal(b1-4)GlcNAc(b1-2)Man(a1-6)]Man(b1-4)GlcNAc(b1-4)[Fuc(a1-6)]GlcNAc
# In short: as §1
# [9] = biological target: Fuc(a1-2)[GalNAc(a1-3)]Gal(b1-4)GlcNAc(b1-3)Gal(b1-4)GlcNAc
# In short: as §1
# [10] = biological target: Fuc(a1-2)[GalNAc(a1-3)]Gal(b1-4)GlcNAc(b1-3)Gal(b1-4)GlcNAc(b1-3)Gal(b1-4)GlcNAc
# In short: as §1
# [11] = biological target: Fuc(a1-2)[GalNAc(a1-3)]Gal(b1-4)GlcNAc(b1-3)GalNAc
# In short: as §1
# [12] = biological target: Fuc(a1-2)[GalNAc(a1-3)]Gal(b1-4)[Fuc(a1-3)]GlcNAc
# In short: as §1
# [13] = biological target: Fuc(a1-2)[GalNAc(a1-3)]Gal(b1-4)[Fuc(a1-3)]GlcNAc(b1-3)GalNAc
# In short: as §1
# [14] = biological target: Fuc(a1-2)[GalNAc(a1-4)]Gal(b1-4)GlcNAc
# In short: as §1
# [15] = biological target: Fuc(a1-2)[GalNAc(b1-3)]Gal
# In short: as §1
# Fuc(a1-3)GlcNAc = biological target: Fuc(a1-3)GlcNAc
# In short: as §1
# [16] = biological target: Fuc(a1-3)[Gal(b1-4)]Glc6S
# In short: as §1
# [17] = biological target: Fuc(a1-3)[Gal(b1-4)]GlcNAc
# In short: as §1
# [18] = biological target: Fuc(a1-3)[Gal(b1-4)]GlcNAc(b1-2)Man
# In short: as §1
# [19] = biological target: Fuc(a1-3)[Gal(b1-4)]GlcNAc(b1-2)Man(a1-3)[Fuc(a1-3)[Gal(b1-4)]GlcNAc(b1-2)Man(a1-6)]Man(b1-4)GlcNAc(b1-4)GlcNAc
# In short: as §1
# [20] = biological target: Fuc(a1-3)[Gal(b1-4)]GlcNAc(b1-2)Man(a1-3)[Fuc(a1-3)[Gal(b1-4)]GlcNAc(b1-2)Man(a1-6)]Man(b1-4)GlcNAc(b1-4)[Fuc(a1-6)]GlcNAc
# In short: as §1
# [21] = biological target: Fuc(a1-3)[Gal(b1-4)]GlcNAc(b1-3)Gal(b1-3)[Fuc(a1-4)]GlcNAc
# In short: as §1
# [22] = biological target: Fuc(a1-3)[Gal(b1-4)]GlcNAc(b1-3)GalNAc
# In short: as §1
# [23] = biological target: Fuc(a1-3)[Gal(b1-4)]GlcNAc(b1-4)Gal(b1-4)[Fuc(a1-3)]GlcNAc
# In short: as §1
# [24] = biological target: Fuc(a1-3)[Gal(b1-4)]GlcNAc(b1-4)Gal(b1-4)[Fuc(a1-3)]GlcNAc(b1-4)Gal(b1-4)[Fuc(a1-3)]GlcNAc
# In short: as §1
# [25] = biological target: Fuc(a1-3)[Gal(b1-4)]GlcNAc(b1-6)GalNAc
# In short: as §1
# [26] = biological target: Fuc(a1-3)[Gal(b1-4)]GlcNAc(b1-6)[Gal(b1-3)GlcNAc(b1-3)]Gal(b1-4)Glc
# In short: as §1
# [27] = biological target: Fuc(a1-3)[Gal(b1-4)]GlcNAc(b1-6)[Neu5Ac(a2-3)Gal(b1-3)]GalNAc
# In short: as §1
# [28] = biological target: Fuc(a1-3)[Gal(b1-4)]GlcNAc6S
# In short: as §1
# [29] = biological target: Fuc(a1-3)[Gal3S(b1-4)]GlcNAc
# In short: as §1
# [30] = biological target: Fuc(a1-3)[Gal3S(b1-4)]GlcNAc6S
# In short: as §1
# [31] = biological target: Fuc(a1-3)[GalNAc(b1-4)]GlcNAc
# In short: as §1
# [32] = biological target: Fuc(a1-3)[GalNAc(b1-4)]GlcNAc6S
# In short: as §1
# [33] = biological target: Fuc(a1-3)[GalNAc3S(b1-4)]GlcNAc
# In short: as §1
# Fuc(a1-4)GlcNAc = biological target: Fuc(a1-4)GlcNAc
# In short: as §1
# Fuc(b1-3)GlcNAc = biological target: Fuc(b1-3)GlcNAc
# In short: as §1
# Gal(a1-2)Gal = biological target: Gal(a1-2)Gal
# In short: as §1
# Gal(a1-3)Gal = biological target: Gal(a1-3)Gal
# In short: as §1
binder,measurement,setting,value
B1,glycan array binding signal (z-score),[1],0.721
same,glycan array binding signal (z-score),[2],0.353
same,glycan array binding signal (z-score),[3],-0.568
same,glycan array binding signal (z-score),[4],-0.634
same,glycan array binding signal (z-score),[5],-0.734
same,glycan array binding signal (z-score),[6],0.675
same,glycan array binding signal (z-score),[7],-0.043
same,glycan array binding signal (z-score),[8],1.15
same,glycan array binding signal (z-score),[9],-0.608
same,glycan array binding signal (z-score),[10],-0.338
same,glycan array binding signal (z-score),[11],-0.634
same,glycan array binding signal (z-score),[12],-0.318
same,glycan array binding signal (z-score),[13],0.306
same,glycan array binding signal (z-score),[14],-0.304
same,glycan array binding signal (z-score),[15],0.112
same,glycan array binding signal (z-score),Fuc(a1-3)GlcNAc,0.607
same,glycan array binding signal (z-score),[16],-0.5
same,glycan array binding signal (z-score),[17],-0.383
same,glycan array binding signal (z-score),[18],-0.536
same,glycan array binding signal (z-score),[19],1.27
same,glycan array binding signal (z-score),[20],2.81
same,glycan array binding signal (z-score),[21],-0.373
same,glycan array binding signal (z-score),[22],-0.209
same,glycan array binding signal (z-score),[23],-0.769
same,glycan array binding signal (z-score),[24],-0.757
same,glycan array binding signal (z-score),[25],2.53
same,glycan array binding signal (z-score),[26],-0.505
same,glycan array binding signal (z-score),[27],0.172
same,glycan array binding signal (z-score),[28],0.128
same,glycan array binding signal (z-score),[29],0.479
same,glycan array binding signal (z-score),[30],-0.558
same,glycan array binding signal (z-score),[31],2.28
same,glycan array binding signal (z-score),[32],-0.642
same,glycan array binding signal (z-score),[33],0.467
same,glycan array binding signal (z-score),Fuc(a1-4)GlcNAc,-0.555
same,glycan array binding signal (z-score),Fuc(b1-3)GlcNAc,0.528
same,glycan array binding signal (z-score),Gal(a1-2)Gal,0.189
same,glycan array binding signal (z-score),Gal(a1-3)Gal,-0.553
